Data from the supplement of paper PMC10126150.
Values marked as one replicate rest on one cluster of the flow cell; about a third of the high ones do not repeat.

These sequences were tested on ATP (assay: switch fluorescence ratio, 500 uM ATP over buffer (Cy3 cluster intensity, sum of 5 cycles each) (fold (ratio)); higher = stronger signal-on switching upon ATP binding; sequences stand for … in TCGTCGGCAGCGTCAGATGTGTATAAGAGACAGTTTTTTTTTTTTTTTTTTTTTTTTT…TC). Settings: aptamer strand: ATP DNA aptamer (quencher-CACCTGGGGGAGTATTGCGGAGGAAGG + anchor), 100 nM annealed; ATP concentration: 500 uM; one replicate.
How it was run: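 Clusters with intensities outside 100-1000 RFU were excluded. The remaining Cy3-labelled switching-strand clusters on a modified Illumina MiSeq flow-cell had been annealed to 100 nM quencher-labelled ATP aptamer and imaged in selection buffer, then after 15 min with 500 uM ATP at 22 °C, for five cycles separated by NaOH stripping and re-annealing. The fluorescence ratio, averaged per switch-domain sequence, is each cluster's summed target-cycle Cy3 intensity over its summed buffer-cycle Cy3 intensity.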
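Note: ATP exposure 15 min at 22 °C before imaging.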

Q: For TTACAAAGCT, which switch fluorescence ratio is on record?
A: 1.15

Q: How did the switch fluorescence ratio turn out when TTACAACCGG was run?
A: 0.998

Q: TTACAACGAT was tested. Which switch fluorescence ratio did it give?
A: 0.968

Q: With TTACAACTTA as the sequence, how does the switch fluorescence ratio read?
A: 1.01

Q: How did the switch fluorescence ratio turn out when TTACAATTAG was run?
A: 1.03

Q: How did the switch fluorescence ratio turn out when TTACACCAGG was run?
A: 2.55

Q: For TTACACCCAA, which switch fluorescence ratio is on record?
A: 1.11

Q: TTACACGAGT was tested. Which switch fluorescence ratio did it give?
A: 1.02

Q: How did the switch fluorescence ratio turn out when TTACAGAAAT was run?
A: 1.12

Q: For TTACATCGCA, which switch fluorescence ratio is on record?
A: 1.1

Q: TTACATTTCC was tested. Which switch fluorescence ratio did it give?
A: 1.05

Q: With TTACCAAGTA as the sequence, how does the switch fluorescence ratio read?
A: 1.1

Q: How did the switch fluorescence ratio turn out when TTACCCGTCG was run?
A: 0.966

Q: How did the switch fluorescence ratio turn out when TTACCCTCTG was run?
A: 1.09

Q: TTACCGAGTA was tested. Which switch fluorescence ratio did it give?
A: 1.02

Q: Which switch fluorescence ratio does the source give for TTACCGTACT here?
A: 1.11

Q: For TTACCTAAAT, which switch fluorescence ratio is on record?
A: 1.04

Q: For TTACCTGCTG, which switch fluorescence ratio is on record?
A: 1.04

Q: With TTACGAAATT as the sequence, how does the switch fluorescence ratio read?
A: 0.975

Q: For TTACGATGAT, which switch fluorescence ratio is on record?
A: 1.02

Q: How did the switch fluorescence ratio turn out when TTACGATGGC was run?
A: 1.29

Q: How did the switch fluorescence ratio turn out when TTACGCAGGT was run?
A: 0.977

Q: For TTACGGGAAA, which switch fluorescence ratio is on record?
A: 1.01

Q: For TTACGGTACA, which switch fluorescence ratio is on record?
A: 1.51

Q: With TTACGTACG as the sequence, how does the switch fluorescence ratio read?
A: 1.38

Q: For TTACGTAGCT, which switch fluorescence ratio is on record?
A: 1.5

Q: Which switch fluorescence ratio does the source give for TTACGTCCCA here?
A: 0.995

Q: TTACGTGGTG was tested. Which switch fluorescence ratio did it give?
A: 1.05

Q: With TTACGTTCAA as the sequence, how does the switch fluorescence ratio read?
A: 1.12

Q: Which switch fluorescence ratio does the source give for TTACTACGCT here?
A: 2.24

Q: Which switch fluorescence ratio does the source give for TTACTAGCTG here?
A: 1.06

Q: How did the switch fluorescence ratio turn out when TTACTGCGAC was run?
A: 1.53

Q: For TTACTGGTG, which switch fluorescence ratio is on record?
A: 1.19

Q: For TTACTTAGTG, which switch fluorescence ratio is on record?
A: 1.04

Q: For TTACTTCCCT, which switch fluorescence ratio is on record?
A: 1.17

Q: With TTACTTGGCG as the sequence, how does the switch fluorescence ratio read?
A: 1.02

Q: Which switch fluorescence ratio does the source give for TTACTTTCGC here?
A: 1.02

Q: Which switch fluorescence ratio does the source give for TTACTTTTAA here?
A: 0.984

Q: For TTAGAAAGGT, which switch fluorescence ratio is on record?
A: 1.01

Q: For TTAGAAATCA, which switch fluorescence ratio is on record?
A: 1

Q: With TTAGAATCAG as the sequence, how does the switch fluorescence ratio read?
A: 0.969

Q: With TTAGAATGTT as the sequence, how does the switch fluorescence ratio read?
A: 0.997

Q: With TTAGACCTAT as the sequence, how does the switch fluorescence ratio read?
A: 0.966

Q: Which switch fluorescence ratio does the source give for TTAGACCTTG here?
A: 0.97

Q: TTAGACGGAT was tested. Which switch fluorescence ratio did it give?
A: 0.961

Q: TTAGAGAATT was tested. Which switch fluorescence ratio did it give?
A: 1.01

Q: Which switch fluorescence ratio does the source give for TTAGAGAGGG here?
A: 0.966

Q: How did the switch fluorescence ratio turn out when TTAGAGCAA was run?
A: 1.02

Q: For TTAGATTGTA, which switch fluorescence ratio is on record?
A: 1.03

Q: How did the switch fluorescence ratio turn out when TTAGCAATTT was run?
A: 1.34

Q: With TTAGCATGGC as the sequence, how does the switch fluorescence ratio read?
A: 0.992

Q: For TTAGCATTGA, which switch fluorescence ratio is on record?
A: 1.09

Q: For TTAGCCACT, which switch fluorescence ratio is on record?
A: 0.997

Q: How did the switch fluorescence ratio turn out when TTAGCCGCTT was run?
A: 1.01

Q: Which switch fluorescence ratio does the source give for TTAGCCGGTA here?
A: 0.975

Q: TTAGCCGTAG was tested. Which switch fluorescence ratio did it give?
A: 0.988

Q: With TTAGCCTACC as the sequence, how does the switch fluorescence ratio read?
A: 1.32

Q: TTAGCTCGTG was tested. Which switch fluorescence ratio did it give?
A: 0.982

Q: How did the switch fluorescence ratio turn out when TTAGCTGACA was run?
A: 1.01

Q: How did the switch fluorescence ratio turn out when TTAGCTGGTA was run?
A: 1.03

Q: For TTAGCTTGA, which switch fluorescence ratio is on record?
A: 0.973

Q: How did the switch fluorescence ratio turn out when TTAGCTTTCG was run?
A: 1.02

Q: With TTAGGAATTG as the sequence, how does the switch fluorescence ratio read?
A: 1.04

Q: Which switch fluorescence ratio does the source give for TTAGGCAAAT here?
A: 0.985

Q: With TTAGGGATTC as the sequence, how does the switch fluorescence ratio read?
A: 0.982

Q: For TTAGGGGCTG, which switch fluorescence ratio is on record?
A: 0.948

Q: TTAGGGTGTC was tested. Which switch fluorescence ratio did it give?
A: 0.968

Q: With TTAGGTCAAA as the sequence, how does the switch fluorescence ratio read?
A: 0.995

Q: TTAGGTCCCA was tested. Which switch fluorescence ratio did it give?
A: 1.01

Q: TTAGGTCGAC was tested. Which switch fluorescence ratio did it give?
A: 0.999

Q: For TTAGGTCGTG, which switch fluorescence ratio is on record?
A: 0.992

Q: How did the switch fluorescence ratio turn out when TTAGGTGTGG was run?
A: 0.973

Q: TTAGGTTTCA was tested. Which switch fluorescence ratio did it give?
A: 0.969

Q: Which switch fluorescence ratio does the source give for TTAGTACGCA here?
A: 1.2

Q: Which switch fluorescence ratio does the source give for TTAGTCACGA here?
A: 0.972

Q: Which switch fluorescence ratio does the source give for TTAGTCGAAC here?
A: 1.07

Q: Which switch fluorescence ratio does the source give for TTAGTCGTTC here?
A: 1.05

Q: Which switch fluorescence ratio does the source give for TTAGTCTCCG here?
A: 1.02

Q: With TTAGTGAGT as the sequence, how does the switch fluorescence ratio read?
A: 0.966

Q: For TTAGTGATAT, which switch fluorescence ratio is on record?
A: 0.994

Q: For TTAGTGCAT, which switch fluorescence ratio is on record?
A: 0.957

Q: TTAGTGCATG was tested. Which switch fluorescence ratio did it give?
A: 0.992

Q: How did the switch fluorescence ratio turn out when TTAGTTAGAG was run?
A: 1

Q: With TTAGTTCACT as the sequence, how does the switch fluorescence ratio read?
A: 0.991

Q: TTATAACGCG was tested. Which switch fluorescence ratio did it give?
A: 1.02
